The other results are listed elsewhere or left out. Binding of human transcription factors and regulators to the viral nucleoprotein by AlphaScreen, crude cell-free proteins, amounts not normalised, one pass. Fold of the Venus control; higher = more signal. No active / inactive call. Single-pass screen; sequences are the whole Swiss-Prot entries looked up by name.
B1: TCF4, P15884 (protein)
chain: MHHQQRMAALGTDKELSDLLDFSAMFSPPVSSGKNGPTSLASGHFTGSNVEDRSSSGSWGNGGHPSPSRNYGDGTPYDHMTSRDLGSHDNLSPPFVNSRIQSKTERGSYSSYGRESNLQGCHQQSLLGGDMDMGNPGTLSPTKPGSQYYQYSSNNPRRRPLHSSAMEVQTKKVRKVPPGLPSSVYAPSASTADYNRDSPGYPSSKPATSTFPSSFFMQDGHHSSDPWSSSSGMNQPGYAGMLGNSSHIPQSSSYCSLHPHERLSYPSHSSADINSSLPPMSTFHRSGTNHYSTSSCTPPANGTDSIMANRGSGAAGSSQTGDALGKALASIYSPDHTNNSFSSNPSTPVGSPPSLSAGTAVWSRNGGQASSSPNYEGPLHSLQSRIEDRLERLDDAIHVLRNHAVGPSTAMPGGHGDMHGIIGPSHNGAMGGLGSGYGTGLLSANRHSLMVGTHREDGVALRGSHSLLPNQVPVPQLPVQSATSPDLNPPQDPYRGMPPGLQGQSVSSGSSEIKSDDEGDENLQDTKSSEDKKLDDDKKDIKSITSNNDDEDLTPEQKAEREKERRMANNARERLRVRDINEAFKELGRMVQLHLKSDKPQTKLLILHQAVAVILSLEQQVRERNLNPKAACLKRREEEKVSSEPPPLSLAGPHPGMGDASNHMGQM
B2: ZNF131, P52739 (protein)
chain: MEAEETMECLQEFPEHHKMILDRLNEQREQDRFTDITLIVDGHHFKAHKAVLAACSKFFYKFFQEFTQEPLVEIEGVSKMAFRHLIEFTYTAKLMIQGEEEANDVWKAAEFLQMLEAIKALEVRNKENSAPLEENTTGKNEAKKRKIAETSNVITESLPSAESEPVEIEVEIAEGTIEVEDEGIETLEEVASAKQSVKYIQSTGSSDDSALALLADITSKYRQGDRKGQIKEDGCPSDPTSKQVEGIEIVELQLSHVKDLFHCEKCNRSFKLFYHFKEHMKSHSTESFKCEICNKRYLRESAWKQHLNCYHLEEGGVSKKQRTGKKIHVCQYCEKQFDHFGHFKEHLRKHTGEKPFECPNCHERFARNSTLKCHLTACQTGVGAKKGRKKLYECQVCNSVFNSWDQFKDHLVIHTGDKPNHCTLCDLWFMQGNELRRHLSDAHNISERLVTEEVLSVETRVQTEPVTSMTIIEQVGKVHVLPLLQVQVDSAQVTVEQVHPDLLQDSQVHDSHMSELPEQVQVSYLEVGRIQTEEGTEVHVEELHVERVNQMPVEVQTELLEADLDHVTPEIMNQEERESSQADAAEAAREDHEDAEDLETKPTVDSEAEKAENEDRTALPVLE
B3: ARHGEF2, Q92974 (protein)
chain: MSRIESLTRARIDRSRELASKTREKEKMKEAKDARYTNGHLFTTISVSGMTMCYACNKSITAKEALICPTCNVTIHNRCKDTLANCTKVKQKQQKAALLKNNTALQSVSLRSKTTIRERPSSAIYPSDSFRQSLLGSRRGRSSLSLAKSVSTTNIAGHFNDESPLGLRRILSQSTDSLNMRNRTLSVESLIDEAEVIYSELMSDFEMDEKDFAADSWSLAVDSSFLQQHKKEVMKQQDVIYELIQTELHHVRTLKIMTRLFRTGMLEELHLEPGVVQGLFPCVDELSDIHTRFLSQLLERRRQALCPGSTRNFVIHRLGDLLISQFSGPSAEQMCKTYSEFCSRHSKALKLYKELYARDKRFQQFIRKVTRPAVLKRHGVQECILLVTQRITKYPLLISRILQHSHGIEEERQDLTTALGLVKELLSNVDEGIYQLEKGARLQEIYNRMDPRAQTPVPGKGPFGREELLRRKLIHDGCLLWKTATGRFKDVLVLLMTDVLVFLQEKDQKYIFPTLDKPSVVSLQNLIVRDIANQEKGMFLISAAPPEMYEVHTASRDDRSTWIRVIQQSVRTCPSREDFPLIETEDEAYLRRIKMELQQKDRALVELLREKVGLFAEMTHFQAEEDGGSGMALPTLPRGLFRSESLESPRGERLLQDAIREVEGLKDLLVGPGVELLLTPREPALPLEPDSGGNTSPGVTANGEARTFNGSIELCRADSDSSQRDRNGNQLRSPQEEALQRLVNLYGLLHGLQAAVAQQDTLMEARFPEGPERREKLCRANSRDGEAGRAGAAPVAPEKQATELALLQRQHALLQEELRRCRRLGEERATEAGSLEARLRESEQARALLEREAEEARRQLAALGQTEPLPAEAPWARRPVDPRRRSLPAGDALYLSFNPPQPSRGTDRLDLPVTTRSVHRNFEDRERQELGSPEERLQDSSDPDTGSEEEGSSRLSPPHSPRDFTRMQDIPEETESRDGEAVASES
B4: POU4F2, Q12837 (protein)
chain: MMMMSLNSKQAFSMPHGGSLHVEPKYSALHSTSPGSSAPIAPSASSPSSSSNAGGGGGGGGGGGGGGGRSSSSSSSGSSGGGGSEAMRRACLPTPPSNIFGGLDESLLARAEALAAVDIVSQSKSHHHHPPHHSPFKPDATYHTMNTIPCTSAASSSSVPISHPSALAGTHHHHHHHHHHHHQPHQALEGELLEHLSPGLALGAMAGPDGAVVSTPAHAPHMATMNPMHQAALSMAHAHGLPSHMGCMSDVDADPRDLEAFAERFKQRRIKLGVTQADVGSALANLKIPGVGSLSQSTICRFESLTLSHNNMIALKPILQAWLEEAEKSHREKLTKPELFNGAEKKRKRTSIAAPEKRSLEAYFAIQPRPSSEKIAAIAEKLDLKKNVVRVWFCNQRQKQKRMKYSAGI
B5: TFE3, P19532 (protein)
chain: MSHAAEPARDGVEASAEGPRAVFVLLEERRPADSAQLLSLNSLLPESGIVADIELENVLDPDSFYELKSQPLPLRSSLPISLQATPATPATLSASSSAGGSRTPAMSSSSSSRVLLRQQLMRAQAQEQERRERREQAAAAPFPSPAPASPAISVVGVSAGGHTLSRPPPAQVPREVLKVQTHLENPTRYHLQQARRQQVKQYLSTTLGPKLASQALTPPPGPASAQPLPAPEAAHTTGPTGSAPNSPMALLTIGSSSEKEIDDVIDEIISLESSYNDEMLSYLPGGTTGLQLPSTLPVSGNLLDVYSSQGVATPAITVSNSCPAELPNIKREISETEAKALLKERQKKDNHNLIERRRRFNINDRIKELGTLIPKSSDPEMRWNKGTILKASVDYIRKLQKEQQRSKDLESRQRSLEQANRSLQLRIQELELQAQIHGLPVPPTPGLLSLATTSASDSLKPEQLDIEEEGRPGAATFHVGGGPAQNAPHQQPPAPPSDALLDLHFPSDHLGDLGDPFHLGLEDILMEEEEGVVGGLSGGALSPLRAASDPLLSSVSPAVSKASSRRSSFSMEEES
B6: PURB, Q96QR8 (protein)
chain: MADGDSGSERGGGGGPCGFQPASRGGGEQETQELASKRLDIQNKRFYLDVKQNAKGRFLKIAEVGAGGSKSRLTLSMAVAAEFRDSLGDFIEHYAQLGPSSPEQLAAGAEEGGGPRRALKSEFLVRENRKYYLDLKENQRGRFLRIRQTVNRGGGGFGAGPGPGGLQSGQTIALPAQGLIEFRDALAKLIDDYGGEDDELAGGPGGGAGGPGGGLYGELPEGTSITVDSKRFFFDVGCNKYGVFLRVSEVKPSYRNAITVPFKAWGKFGGAFCRYADEMKEIQERQRDKLYERRGGGSGGGEESEGEEVDED
B7: ZNF438, Q7Z4V0 (protein)
chain: MQNSVSVPPKDEGESNIPSGTIQSRKGLQNKSQFRTIAPKIVPKVLTSRMLPCHSPSRSDQVNLGPSINSKLLGMSTQNYALMQVAGQEGTFSLVALPHVASAQPIQKPRMSLPENLKLPIPRYQPPRNSKASRKKPILIFPKSGCSKAPAQTQMCPQMSPSPPHHPELLYKPSPFEEVPSLEQAPASISTAALTNGSDHGDLRPPVTNTHGSLNPPATPASSTPEEPAKQDLTALSGKAHFVSKITSSKPSAVASEKFKEQVDLAKTMTNLSPTILGNAVQLISSVPKGKLPIPPYSRMKTMEVYKIKSDANIAGFSLPGPKADCDKIPSTTEGFNAATKVASRLPVPQVSQQSACESAFCPPTKLDLNHKTKLNSGAAKRKGRKRKVPDEILAFQGKRRKYIINKCRDGKERVKNDPQEFRDQKLGTLKKYRSIMPKPIMVIPTLASLASPTTLQSQMLGGLGQDVLLNNSLTPKYLGCKQDNSSSPKPSSVFRNGFSGIKKPWHRCHVCNHHFQFKQHLRDHMNTHTNRRPYSCRICRKSYVRPGSLSTHMKLHHGENRLKKLMCCEFCAKVFGHIRVYFGHLKEVHRVVISTEPAPSELQPGDIPKNRDMSVRGMEGSLERENKSNLEEDFLLNQADEVKLQIKCGRCQITAQSFAEIKFHLLDVHGEEIEGRLQEGTFPGSKGTQEELVQHASPDWKRHPERGKPEKVHSSSEESHACPRLKRQLHLHQNGVEMLMENEGPQSGTNKPRETCQGPECPGLHTFLLWSHSGFNCLLCAEMLGRKEDLLHHWKHQHNCEDPSKLWAILNTVSNQGVIELSSEAEK
B8: STAT1, P42224 (protein)
chain: MSQWYELQQLDSKFLEQVHQLYDDSFPMEIRQYLAQWLEKQDWEHAANDVSFATIRFHDLLSQLDDQYSRFSLENNFLLQHNIRKSKRNLQDNFQEDPIQMSMIIYSCLKEERKILENAQRFNQAQSGNIQSTVMLDKQKELDSKVRNVKDKVMCIEHEIKSLEDLQDEYDFKCKTLQNREHETNGVAKSDQKQEQLLLKKMYLMLDNKRKEVVHKIIELLNVTELTQNALINDELVEWKRRQQSACIGGPPNACLDQLQNWFTIVAESLQQVRQQLKKLEELEQKYTYEHDPITKNKQVLWDRTFSLFQQLIQSSFVVERQPCMPTHPQRPLVLKTGVQFTVKLRLLVKLQELNYNLKVKVLFDKDVNERNTVKGFRKFNILGTHTKVMNMEESTNGSLAAEFRHLQLKEQKNAGTRTNEGPLIVTEELHSLSFETQLCQPGLVIDLETTSLPVVVISNVSQLPSGWASILWYNMLVAEPRNLSFFLTPPCARWAQLSEVLSWQFSSVTKRGLNVDQLNMLGEKLLGPNASPDGLIPWTRFCKENINDKNFPFWLWIESILELIKKHLLPLWNDGCIMGFISKERERALLKDQQPGTFLLRFSESSREGAITFTWVERSQNGGEPDFHAVEPYTKKELSAVTFPDIIRNYKVMAAENIPENPLKYLYPNIDKDHAFGKYYSRPKEAPEPMELDGPKGTGYIKTELISVSEVHPSRLQTTDNLLPMSPEEFDEVSRIVGSVEFDSMMNTV

Molecular target: nucleoprotein N of Crimean-Congo hemorrhagic fever virus
Experiment: AlphaScreen luminescence signal relative to Venus negative control (fold); higher = stronger binding to CCHFV N
Experimental: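 AlphaScreen binding of cell-free made, FLAG-GST-tagged human transcription factors and regulators (crude translation products) to biotinylated N protein; signal as fold of the FLAG-GST-Venus control. One pass.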

Binder	AlphaScreen luminescence signal
B1	2
B2	1.86
B3	2.7
B4	3.4
B5	2.6
B6	5.86
B7	2.88
B8	2
